Assay results taken from US20260216242A1, “ALPP-SPECIFIC VARIANT ANTIGEN BINDING MOLECULES” (ALMAC DISCOVERY LIMITED, priority 2022, published 2026).

T1: hALPI (Homo sapiens, UniProt P09923)
T1 sequence (P09923 with tags, fused parts or gaps): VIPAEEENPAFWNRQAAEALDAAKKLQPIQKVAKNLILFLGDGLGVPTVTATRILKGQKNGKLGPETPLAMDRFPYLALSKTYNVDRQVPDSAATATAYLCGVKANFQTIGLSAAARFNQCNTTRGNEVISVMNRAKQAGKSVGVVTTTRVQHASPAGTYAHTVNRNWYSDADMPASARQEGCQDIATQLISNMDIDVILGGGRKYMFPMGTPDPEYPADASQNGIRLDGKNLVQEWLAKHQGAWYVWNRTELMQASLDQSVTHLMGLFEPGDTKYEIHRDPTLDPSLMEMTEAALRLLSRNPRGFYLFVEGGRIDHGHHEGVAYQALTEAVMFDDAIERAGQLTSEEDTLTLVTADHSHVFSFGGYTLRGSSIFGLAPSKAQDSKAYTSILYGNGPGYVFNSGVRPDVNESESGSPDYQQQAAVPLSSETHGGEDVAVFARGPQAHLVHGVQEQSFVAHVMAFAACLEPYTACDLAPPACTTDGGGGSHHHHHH


Experiments:
ALPP = ALPP (Homo sapiens, UniProt P05187); assay: BLI binding kinetics, human ALPP immobilised on AR2G sensors (KD / KD apparent); details: VHH-hFc, KD apparent format
Sequence of UniProt P05187 (P05187 with tags, fused parts or gaps): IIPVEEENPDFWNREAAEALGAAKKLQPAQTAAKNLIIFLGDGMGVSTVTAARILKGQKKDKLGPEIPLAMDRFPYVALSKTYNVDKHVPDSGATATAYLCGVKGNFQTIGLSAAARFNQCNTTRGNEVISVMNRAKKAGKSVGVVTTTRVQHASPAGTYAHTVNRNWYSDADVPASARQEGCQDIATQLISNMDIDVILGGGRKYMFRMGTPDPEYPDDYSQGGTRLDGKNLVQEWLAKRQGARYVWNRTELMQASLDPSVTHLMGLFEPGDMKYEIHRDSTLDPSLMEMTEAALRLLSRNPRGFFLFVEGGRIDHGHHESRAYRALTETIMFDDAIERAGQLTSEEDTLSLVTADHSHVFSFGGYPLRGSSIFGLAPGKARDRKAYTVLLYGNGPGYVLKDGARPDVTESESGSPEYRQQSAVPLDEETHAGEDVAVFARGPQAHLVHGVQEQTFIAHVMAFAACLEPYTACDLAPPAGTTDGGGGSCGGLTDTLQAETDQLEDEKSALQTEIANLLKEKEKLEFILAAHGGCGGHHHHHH
Experimental: (§1) Binding kinetics were determined using the Biolayer Interferometry (BLI) Octet K2 system (Sartorius). Human ALPP, ALPPL2, ALPL (each fused with a cysteine stabilised leucine zipper) and ALPI, (SEQ ID NO: 265, SEQ ID NO: 266 and SEQ ID NO: 267 and SEQ ID NO: 264 respectively) were immobilised in sodium acetate pH5 buffer to AR2G sensors using amine coupling. All assays were conducted in PBS with a plate temperature of 25° C. Ka (M^−1s^−1), Kd (s^−1) and KD (nM) values were determined using Octet Data Analysis High Throughput software (ForteBio) for Biolayer Interferometry.
(§2) Binding kinetics were determined using the Biolayer Interferometry (BLI) Octet K2 or R4 system (Sartorius). Human ALPP, ALPPL2 and ALPL all fused with a disulphide stabilised leucine zipper (SEQ ID NO: 265, SEQ ID NO: 266, and SEQ ID NO: 267) and ALPI His (SEQ ID NO: 264) were used in BLI experiments. For KD apparent measurements, the ALPP proteins were immobilised in sodium acetate pH5 buffer to AR2G sensors using amine coupling. To measure 1:1 interactions, AHC biosensors were used to immobilise Fc-fused proteins. All assays were conducted in HBS-EP with a plate temperature of 25° C. Ka (M^−1s^−1), Kd (s^−1) and KD (nM) values were determined using Octet Data Analysis High Throughput software (Sartorius) for Biolayer Interferometry.
as §2, with “NO:264)” for “NO: 264)”

Human ALPPL2 = Human ALPPL2 (Homo sapiens, UniProt P10696); assay: BLI binding kinetics, human ALPPL2 immobilised on AR2G sensors (KD / KD apparent); details: VHH-hFc, KD apparent format
Sequence of Human ALPPL2 (P10696 with tags, fused parts or gaps): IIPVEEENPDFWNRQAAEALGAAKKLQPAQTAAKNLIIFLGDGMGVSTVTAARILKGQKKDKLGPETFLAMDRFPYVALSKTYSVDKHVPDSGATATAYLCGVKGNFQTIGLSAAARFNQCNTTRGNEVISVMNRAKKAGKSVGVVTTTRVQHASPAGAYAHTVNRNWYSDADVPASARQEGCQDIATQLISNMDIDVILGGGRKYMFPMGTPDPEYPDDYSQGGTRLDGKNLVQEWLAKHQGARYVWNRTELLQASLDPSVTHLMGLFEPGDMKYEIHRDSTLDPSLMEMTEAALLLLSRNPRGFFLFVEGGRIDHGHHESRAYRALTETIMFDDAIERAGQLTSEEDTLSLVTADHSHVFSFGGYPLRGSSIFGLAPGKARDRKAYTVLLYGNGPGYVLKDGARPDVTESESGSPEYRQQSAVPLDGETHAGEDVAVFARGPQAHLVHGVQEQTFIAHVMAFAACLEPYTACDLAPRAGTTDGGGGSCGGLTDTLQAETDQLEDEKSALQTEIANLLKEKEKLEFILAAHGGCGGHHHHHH
Experimental: as §1, §2
as §2, with “NO:264)” for “NO: 264)”

hALPI = target: T1, hALPI; assay: BLI binding to ALPI His; details: VHH-hFc
Experimental: as §1, §2
as §2, with “NO:264)” for “NO: 264)”

hALPL = hALPL (Homo sapiens, UniProt P05186); assay: BLI binding to human ALPL; details: VHH-hFc
Sequence of hALPL (P05186 with tags, fused parts or gaps): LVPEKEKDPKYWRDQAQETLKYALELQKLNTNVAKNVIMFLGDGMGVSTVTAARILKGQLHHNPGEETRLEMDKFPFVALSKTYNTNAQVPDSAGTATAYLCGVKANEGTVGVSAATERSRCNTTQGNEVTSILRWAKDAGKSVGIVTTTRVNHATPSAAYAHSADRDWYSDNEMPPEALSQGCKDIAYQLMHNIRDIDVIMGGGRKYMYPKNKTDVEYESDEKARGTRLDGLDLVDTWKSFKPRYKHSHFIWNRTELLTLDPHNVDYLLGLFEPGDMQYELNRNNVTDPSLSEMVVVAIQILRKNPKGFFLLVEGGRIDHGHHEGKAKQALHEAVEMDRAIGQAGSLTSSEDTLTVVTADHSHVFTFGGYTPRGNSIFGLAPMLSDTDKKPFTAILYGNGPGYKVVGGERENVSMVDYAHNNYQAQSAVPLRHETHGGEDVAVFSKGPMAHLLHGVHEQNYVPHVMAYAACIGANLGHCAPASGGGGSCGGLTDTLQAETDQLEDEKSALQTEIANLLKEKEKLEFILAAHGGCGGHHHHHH
Experimental: as §1, §2
as §2, with “NO:264)” for “NO: 264)”

mouse ALPPL2 = target: T2, mouse ALPPL2 (Mus musculus, UniProt P24823); assay: BLI cross-species reactivity, mouse ALPPL2; format: binding; details: VHH-hFc; for mALPPL2 KD: KD apparent; for mALPPL2 Ka / mALPPL2 Kd: KD apparent format
T2 construct: made in house
T2 sequence (P24823 with tags, fused parts or gaps): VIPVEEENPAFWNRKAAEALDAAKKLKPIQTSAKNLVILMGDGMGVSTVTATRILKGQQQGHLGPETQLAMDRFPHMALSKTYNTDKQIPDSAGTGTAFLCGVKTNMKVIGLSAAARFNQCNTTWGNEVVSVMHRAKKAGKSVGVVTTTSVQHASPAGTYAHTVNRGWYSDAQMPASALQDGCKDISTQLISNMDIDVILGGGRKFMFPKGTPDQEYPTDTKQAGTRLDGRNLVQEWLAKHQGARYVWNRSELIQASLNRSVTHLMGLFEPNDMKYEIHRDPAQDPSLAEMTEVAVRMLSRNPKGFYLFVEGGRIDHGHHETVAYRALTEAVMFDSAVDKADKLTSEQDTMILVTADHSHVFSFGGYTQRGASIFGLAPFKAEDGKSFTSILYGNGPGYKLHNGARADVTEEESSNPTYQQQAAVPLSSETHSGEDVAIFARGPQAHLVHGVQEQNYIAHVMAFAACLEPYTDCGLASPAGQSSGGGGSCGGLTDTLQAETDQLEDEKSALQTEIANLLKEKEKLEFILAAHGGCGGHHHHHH
Experimental: as §2
To assess cross-species reactivity of the ALPP/ALPPL2 targeting VHH-hFc fusions, BLI was conducted using mouse ALPPL2 (NCBI #NP_031459), rhesus monkey ALPP (NCBI #XP_028687061) and cynomolgus monkey ALPP (NCBI #XP_045223825). Each of these were expressed as cysteine-stabilised leucine zipper fusions (SEQ ID NO: 271, SEQ ID NO: 272 and SEQ ID NO: 273). BLI was conducted as described above.

Molecule	hALPP Ka (ALPP) [M⁻¹ s⁻¹]	hALPP Kd (ALPP) [s⁻¹]	hALPPL2 Ka (Human ALPPL2) [M⁻¹ s⁻¹]	hALPPL2 Kd (Human ALPPL2) [s⁻¹]	hALPI (hALPI)	hALPL (hALPL)	mALPPL2 KD (mouse ALPPL2)	mALPPL2 Ka (mouse ALPPL2) [M⁻¹ s⁻¹]	mALPPL2 Kd (mouse ALPPL2) [s⁻¹]
B01-hFc (S239C): B01 VHH fused via [G4S]3 linker to human IgG1 Fc with S239C (protein) QVQLVESGGGLVQAGGSLRLSCEVTRSPMPIDTMAWYRQAPGRQRELVAIISRSGSTNYADSVKGRFTISRNDTKSTMYKSTMYLKMNTLELEDTGVYYCNAVGLWNGAEYWGQGTQVTVSSGGGGSGGGGSGGGGS[human IgG1 Fc with changes not spelt out]	140000	<1e-07	308000	0.00000618	Low level binding	No binding	No Binding		
C07-hFc (S239C): C07 VHH fused via [G4S]3 linker to human IgG1 Fc with S239C (protein) QVQLVESGGGLVQAGESLRLACAASGTIFSGNAVGWYRQAPEKQREWVSSITDYGDTDYAEAVKGRFTISRDNAKNTVYLQMNSLKPEDTAVYYCYVYQRGESEEYWGQGTQVTVSSGGGGSGGGGSGGGGS[human IgG1 Fc with changes not spelt out]	151000	<1e-07	253000	0.000114	No binding	No binding	No Binding		
E10-hFc (S239C): E10 VHH fused via [G4S]3 linker to human IgG1 Fc with S239C (SEQ ID NO: 100) (protein) QVQLVESGGGLVQAGGSLRLSCAVSGRALSDYNIGWFRQAPGKEREFVARKTWDGSSTRYDDSVKGRFTVSIEDAKNTAYLQMSSLKTEDTAVYYCAAGRYSRARGWEYDYWGQGTQVTVSSGGGGSGGGGSGGGGS[human IgG1 Fc with changes not spelt out]	382000	0.00000469	288000	<1e-07	No binding	No binding		1620000	0.0042
F05-hFc (S239C): F05 VHH fused via [G4S]3 linker to human IgG1 Fc with S239C (SEQ ID NO: 101) (protein) QVQLVESGGGLVQAGGSLRLSCAASGRAFGDYNIGWFRQAPGKEREFVARRTWDGSSTRYDDSVKGRFTVSIDNAKNTAYLQMNSLKTEDTAVYYCAAGRYSRVRGWEYDYWGQGTQVTVSSGGGGSGGGGSGGGGS[human IgG1 Fc with changes not spelt out]	330000	0.0000206	350000	0.0000106	No binding	No binding		3910000	0.00228
E06-hFc (S239C): E06 VHH fused via [G4S]3 linker to human IgG1 Fc with S239C (SEQ ID NO: 99) (protein) QVHLVESGGGLVQAGGSLRLSCAASRRSFSEYAMGWFRQAPGKEREFVAAIGWSGVIEYADSVKGRFTISRDNAKDTVYLQMNSLKPEDTAVYYCAAGLGIRVVSQTPAYWGQGTQVTVSSGGGGSGGGGSGGGGS[human IgG1 Fc with changes not spelt out]	321000	0.0000122	688000	<1e-07	No binding	No binding	No Binding		
A06-hFc (S239C): A06 VHH fused via [G4S]3 linker to human IgG1 Fc with S239C (SEQ ID NO: 97) (protein) QVHLVESGGGLVQAGGSLRLSCAASGRTFLSMGWFRQAPGKEREFVAAISWTGGSTGYADSVKGRFTISRESDKETMYLQMNSLKPEDTAVYYCAARGDVYYGGDDATRYKYWGQGTQVTVSSGGGGSGGGGSGGGGS[human IgG1 Fc with changes not spelt out]	203000	0.00000018	368000	0.000215	No binding	No binding		392000	0.0000182
D10-hFc (S239C): D10 VHH fused via [G4S]3 linker to human IgG1 Fc with S239C (SEQ ID NO: 98) (protein) QVQLVESGGGLVQPGGSLRLSCAASGSIFSVNTMGWYRQAPGKQRDLVAVATSGGTIHYADSVKGRFTISRDNAKNTVYLQMNSLKPEDTAVYYCNLVVPYGMIAGDHDYWGQGTKVTVSSGGGGSGGGGSGGGGS[human IgG1 Fc with changes not spelt out]	160000	0.0000108	187000	0.00186	No binding	No binding	No Binding		

Changes are numbered by the printed parent chain. Names may count otherwise.
